# Test results: the supplement of paper PMC7238544
# Where a name gives a salt, the structure may show the parent alone. ± gives the standard deviation of the averaged measurements. Some of the results follow.
# Columns and labels:
# Conditions in all cases: priming compound concentration 100 µM
# [1] = tested on: hAMSC donor 1; experiment: Hoechst total cell count ratio vs vehicle control; higher = more cells (less toxicity)
# [2] = tested on: hAMSC donor 2; experiment: as above
# [3] = tested on: hAMSC donor 1; experiment: transgenic luciferase activity (RLU/mg protein) fold change vs vehicle control (ratio); higher = more transgene expression
# [4] = tested on: hAMSC donor 2; experiment: as above
# [5] = tested on: hAMSC donor 1; experiment: transfection efficiency (EGFP+ cells / Hoechst count) fold change vs vehicle control (ratio); hAMSC are human adipose-derived mesenchymal stem cells given an EGFP-luciferase plasmid by lipofection; higher = enhanced transfection
# [6] = tested on: hAMSC donor 2; experiment: as above
# 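For Hoechst total cell count ratio vs vehicle control in this document: compound added 30 min before Lipofectamine 3000 lipoplex delivery, triplicate-well means expressed against DMSO vehicle control wells of the same 96-well plate.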
# 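For transfection efficiency (EGFP+ cells / Hoechst count) fold change vs vehicle control in this document: compounds added 30 min before Lipofectamine 3000 lipoplex transfection, triplicate means relative to DMSO vehicle wells on the same plate, luciferase RLU normalized to BCA total protein.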
# 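For transgenic luciferase activity (RLU/mg protein) fold change vs vehicle control in this document: compounds in DMSO added 30 min before Lipofectamine 3000 transfection of pEGFP-Luc in 96-well plates, values are means of triplicate wells over DMSO vehicle wells on the same plate.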
Structure (SMILES),Hoechst total cell count ratio [1],Hoechst total cell count ratio [2],transgenic luciferase activity [3],transgenic luciferase activity [4],transfection efficiency [5],transfection efficiency [6]
Cn1cnc([N+](=O)[O-])c1Sc1ncnc2[nH]cnc12 [Azathioprine],0.789 ± 0.065,1.38 ± 0.3,0.892 ± 0.18,1.49 ± 0.6,2.01 ± 0.46,0.944 ± 0.21
CO[C@H]1/C=C/O[C@@]2(C)Oc3c(C)c(O)c4c(O)c(c5c(nc6cc(C)ccn65)c4c3C2=O)NC(=O)/C(C)=C\C=C\[C@H](C)[C@H](O)[C@@H](C)[C@@H](O)[C@@H](C)[C@H](OC(C)=O)[C@@H]1C [Rifaximin],0.964 ± 0.15,0.873 ± 0.12,1.52 ± 0.3,1.46 ± 0.17,0.795 ± 0.16,0.988 ± 0.1
C[C@@H](c1ncncc1F)[C@](O)(Cn1cncn1)c1ccc(F)cc1F [Voriconazole],1.35 ± 0.32,1.21 ± 0.33,1.56 ± 1.3,0.727 ± 0.14,0.95 ± 0.16,1.16 ± 0.16
COc1ccccc1OCC(O)CN1CCN(CC(=O)Nc2c(C)cccc2C)CC1 (configuration not stated) [Ranolazine dihydrochloride],1.82 ± 0.26,1.13 ± 0.059,0.786 ± 0.054,0.698 ± 0.012,1.09 ± 0.12,0.851 ± 0.054
COC(=O)C1=C(C)NC(C)=C(C(=O)OC)C1c1ccccc1[N+](=O)[O-] [Nifedipine],1.69 ± 0.029,0.843 ± 0.27,0.967 ± 0.26,1.4 ± 0.17,0.552 ± 0.13,0.773 ± 0.12
OCCN(CCO)c1nc(N2CCCCC2)c2nc(N(CCO)CCO)nc(N3CCCCC3)c2n1 [Dipyridamole],1.19 ± 0.071,1.21 ± 0.3,4.01 ± 2.9,1.38 ± 0.41,1.06 ± 0.19,1.97 ± 0.37
CC(=O)Oc1ccccc1C(=O)Nc1ncc([N+](=O)[O-])s1 [Nitazoxanide],1.23 ± 0.044,1.96 ± 0.066,1.07 ± 0.6,1.77 ± 0.52,1.09 ± 0.27,0.374 ± 0.05
O=C(O)COCCN1CCN([C@H](c2ccccc2)c2ccc(Cl)cc2)CC1 [Levocetirizine],1.55 ± 0.081,0.999 ± 0.095,1.11 ± 0.45,0.791 ± 0.39,0.637 ± 0.14,1.22 ± 0.23
Nc1ncnc2c1ncn2[C@@H]1O[C@H](CO)C[C@@H]1O [3'-Deoxydenosine],1.1 ± 0.082,1.02 ± 0.16,1.16 ± 0.19,1.45 ± 0.78,0.57 ± 0.15,0.93 ± 0.11
CCCCC[C@H](O)/C=C/[C@H]1[C@H](O)CC(=O)[C@@H]1CCCCCCC(=O)O [Prostaglandin E1],1.28 ± 0.064,1.64 ± 0.1,4.69 ± 0.64,2.31 ± 0.8,1.09 ± 0.23,1.05 ± 0.14
Cc1sc(N)c(C(=O)c2cccc(C(F)(F)F)c2)c1C,1.7 ± 0.061,1.44 ± 0.057,0.182 ± 0.094,0.486 ± 0.13,0.422 ± 0.12,0.431 ± 0.056
C[C@]12C=CC(=O)C=C1CC[C@@H]1[C@@H]2[C@@H](O)C[C@@]2(C)[C@H]1CC[C@]2(O)C(=O)CO [Prednisolone],1.2 ± 0.046,1.43 ± 0.23,5.15 ± 1.1,4.04 ± 0.85,2.49 ± 0.25,1.2 ± 0.11
CC1CNc2c(cccc2S(=O)(=O)N[C@@H](CCCNC(=N)N)C(=O)N2CC[C@@H](C)C[C@@H]2C(=O)O)C1 (some centres not stated) [Argatroban],1.49 ± 0.35,1.21 ± 0.13,0.982 ± 0.18,0.883 ± 0.096,0.91 ± 0.16,1.08 ± 0.18
COc1cccc2c1C(=O)c1c(O)c3c(c(O)c1C2=O)C[C@@](O)(C(=O)CO)C[C@@H]3O[C@H]1C[C@H](N)[C@@H](O)[C@H](C)O1 [Epirubicin hydrochloride],0.045 ± 0.0052,0.026 ± 0.0044,0.000716 ± 0.00055,0.000723 ± 0.00045,2.06 ± 0.97,2.31 ± 0.61
Cc1ccc(N(CC2=NCCN2)c2cccc(O)c2)cc1 [Phentolamine mono-hydrochloride],1.38 ± 0.12,1.39 ± 0.095,0.291 ± 0.094,0.58 ± 0.039,0.901 ± 0.11,1.24 ± 0.14
Nc1nc(Cl)nc2c1ncn2[C@@H]1O[C@H](CO)[C@@H](O)[C@H]1O [2-Chloroadenosine],1.23 ± 0.12,1.36 ± 0.065,0.635 ± 0.14,0.684 ± 0.22,0.771 ± 0.045,0.73 ± 0.017
CC(C(O)c1ccc(O)cc1)N1CCC(Cc2ccccc2)CC1 (configuration not stated) [Ifenprodil hemitartrate],1.39 ± 0.14,1.07 ± 0.2,0.481 ± 0.22,0.859 ± 0.2,0.826 ± 0.19,0.825 ± 0.047
CC(C)C[C@H](NC(=O)[C@@H](COC(C)(C)C)NC(=O)[C@H](Cc1ccc(O)cc1)NC(=O)[C@H](CO)NC(=O)[C@H](Cc1c[nH]c2ccccc12)NC(=O)[C@H](Cc1cnc[nH]1)NC(=O)[C@@H]1CCC(=O)N1)C(=O)N[C@@H](CCCNC(=N)N)C(=O)N1CCC[C@H]1C(=O)NNC(N)=O [Goserelin acetate],1.06 ± 0.021,1.44 ± 0.38,0.907 ± 0.47,2.64 ± 0.66,0.986 ± 0.22,1.27 ± 0.054
c1ccc2[nH]c(-c3cscn3)nc2c1 [Thiabendazole],1.09 ± 0.057,1.05 ± 0.22,2.28 ± 0.23,1.18 ± 0.45,1.65 ± 0.49,1.29 ± 0.078
CNS(=O)(=O)Cc1ccc2[nH]cc(CCN(C)C)c2c1 [Sumatriptan succinate],1.36 ± 0.2,1.22 ± 0.14,1.65 ± 0.24,1.07 ± 0.032,1.73 ± 0.56,0.908 ± 0.13
NC(=O)N1c2ccccc2CC(=O)c2ccccc21 [Oxcarbazepine],1.85 ± 0.058,1.33 ± 0.11,0.33 ± 0.097,1.03 ± 0.46,0.342 ± 0.011,0.637 ± 0.011
CC(CCCCC(=O)Nc1ccc(C(F)(F)F)cc1)NCCc1cnc[nH]1 (configuration not stated) [HTMT dimaleate],1.68 ± 0.15,1.16 ± 0.12,0.27 ± 0.23,0.441 ± 0.22,0.711 ± 0.045,0.409 ± 0.049
CCCCC(=O)O[C@]1(C(=O)CO)CC[C@H]2[C@@H]3CCC4=CC(=O)CC[C@]4(C)[C@H]3[C@@H](O)C[C@@]21C [Hydrocortisone 17-valerate],1.26 ± 0.18,1.05 ± 0.022,8.84 ± 1.1,1.25 ± 0.43,2.16 ± 0.79,1.29 ± 0.16
CC(=O)O[C@]1(C(C)=O)CC[C@H]2[C@@H]3C[C@H](C)C4=CC(=O)CC[C@]4(C)[C@H]3CC[C@@]21C [Medroxyprogesterone 17-acetate],1.3 ± 0.024,1.59 ± 0.22,1.6 ± 0.35,1.6 ± 0.28,1.67 ± 0.26,1.39 ± 0.13
Cc1cnc(C(=O)NCCc2ccc(S(=O)(=O)NC(=O)NC3CCCCC3)cc2)cn1 [Glipizide],0.884 ± 0.033,1.18 ± 0.1,1.05 ± 0.49,1.88 ± 0.19,1.32 ± 0.49,1.16 ± 0.18
O=C1c2c(O)ccc(O)c2C(=O)c2c(NCCNCCO)ccc(NCCNCCO)c21 [Mitoxantrone hydrochloride],0.0957 ± 0.017,0.011 ± 0.012,0.000674 ± 0.00056,0.000303 ± 0.00013,0.446 ± 0.53,0
CN1CCN(CCCN2c3ccccc3Sc3ccc(C(F)(F)F)cc32)CC1 [Trifluoperazine hydrochloride],0.096 ± 0.054,0.0307 ± 0.02,0.000515 ± 7.3e-05,0.000386 ± 2.9e-05,0.4 ± 0.18,0.575 ± 0.33
